Consider 59 molecules from the supplement of paper PMC9446081.

Hit rate of the full screen: of about 39,000 compounds, about 220 (0.56%) showed activity. Some of the results follow.
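Further: static incubation at 37 °C against the wild-type strain, values averaged over two biological replicates.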

The subject of the assay is Escherichia coli K-12 BW25113. Briefly: relative growth (OD600 normalised to plate interquartile mean) (fraction); higher = less growth inhibition, active = 0.2 or less. The note with it: 50 µM; LB; incubation time: overnight (16-24 h).
As to `C[C@@H]1CN([C@@H](C)CO)C(=O)c2cccc(NC(=O)Nc3cccc4ccccc34)c2O[C@@H]1CN(C)S(=O)(=O)c1cccs1`, the relative growth is inactive: 0.981. `Cc1cc(C(=O)Nc2cccc3c2O[C@H](CN(C)C(=O)NC(C)C)[C@H](C)CN([C@@H](C)CO)C3=O)n(C)n1`: the relative growth is inactive: 1.05. As to `O=C(C[C@@H]1CC[C@@H]2[C@H](COC[C@H](O)CN2S(=O)(=O)c2cccc(Cl)c2)O1)NCc1ccc2c(c1)OCO2`, the relative growth was inactive: 0.882. With `Cc1ccc(S(=O)(=O)N(C)C[C@@H]2OCCCC[C@H](C)Oc3ccc(NC(=O)Nc4cccc5ccccc45)cc3C(=O)N([C@@H](C)CO)C[C@H]2C)cc1`, the relative growth is inactive: 1.05. For the molecule `C[C@@H]1CCCCO[C@@H](CN(C)C(=O)Nc2ccc(F)cc2)[C@H](C)CN([C@H](C)CO)C(=O)c2cc(NC(=O)c3ccncc3)ccc2O1`, the relative growth is inactive: 0.815. Then `Cc1cc(O[C@@H](CCC(F)(F)F)c2ccc(C(=O)NCCC(=O)O)cc2)cc(C)c1-c1ccc(C(C)(C)C)cc1`, with inactive: 0.834; and `COc1ccc(S(=O)(=O)Nc2ccc3c(c2)C(=O)N([C@H](C)CO)C[C@H](C)[C@@H](CN(C)Cc2ccc4c(c2)OCO4)OCCCC[C@@H](C)O3)cc1`, with inactive: 1.02.

In the case of `O=C(C[C@@H]1CC[C@H]2[C@@H](COC[C@H](O)CN2C(=O)c2cccnc2)O1)NCC1CC1`, the relative growth is inactive: 0.952. In the case of `CC(C)(CO)C(O)C(=O)NCCCO` (centres undefined), the relative growth was inactive: 1.13. Regarding `COc1ccc(S(=O)(=O)Nc2cccc3c2O[C@@H](CN(C)C(=O)Nc2cccc4ccccc24)[C@H](C)CN([C@@H](C)CO)C3=O)cc1`, the relative growth is inactive: 1.05.

Take `CN(C)CC(=O)N[C@@H]1CC[C@@H](CCNS(=O)(=O)c2ccccc2)O[C@@H]1CO`: the relative growth was inactive: 1.01. With `C[C@@H]1NC(=O)[C@@H]2CCCN2C(=O)[C@H](CC(N)=O)NC(=O)[C@@H]2CSSC[C@H](N)C(=O)N[C@H]3CSSC[C@H](NC1=O)C(=O)N[C@@H]([C@@H](C)O)C(=O)NCC(=O)N[C@H](C(=O)N[C@@H](Cc1ccc(O)cc1)C(=O)O)CSSC[C@H](NC(=O)[C@H](Cc1ccc(O)cc1)NC(=O)[C@H](CCC(=O)O)NC3=O)C(=O)N2` the figure was inactive: 0.968; with `COc1ccc(S(=O)(=O)N(C)C[C@@H]2Oc3c(NS(C)(=O)=O)cccc3C(=O)N([C@H](C)CO)C[C@H]2C)cc1`, inactive: 0.981; with `OC(c1ccc(-c2ccc(CN3CCN(Cc4ccncc4)CC3)cc2)c(F)c1)(C(F)(F)F)C(F)(F)F`, inactive: 1.04. With `C[C@H](CO)N1C[C@H](C)[C@@H](CN(C)C(=O)Nc2ccccc2)OCCCC[C@H](C)Oc2ccc(NC(=O)C3CCCCC3)cc2C1=O` the figure was inactive: 1.03. Then `C[C@H](CO)N1C[C@H](C)[C@H](CN(C)Cc2ccccc2)OCCCC[C@H](C)Oc2ccc(NC(=O)CCC(F)(F)F)cc2C1=O`, with inactive: 0.974; and `O=C(O[C@@H]1O[C@H]2COC(=O)c3cc(O)c(O)c(O)c3-c3c(cc(O)c(O)c3O)C(=O)O[C@@H]([C@H]1O)[C@@H]2OC(=O)c1cc(O)c(O)c(O)c1-c1c(C(=O)O)cc(O)c(O)c1O)c1cc(O)c(O)c(O)c1`, with inactive: 0.557. `COC(=O)[C@@H]1CC(=O)N(C(C)C)C1`: the relative growth is inactive: 1. Then `CO[C@H]1CN(C)C(=O)c2cc(NS(=O)(=O)CC(F)(F)F)ccc2OC[C@@H](C)N(Cc2ccccn2)C[C@@H]1C`, with inactive: 0.887. Regarding `C[C@@H]1CCCCO[C@H](CN(C)C(=O)CCCN(C)C)[C@@H](C)CN([C@H](C)CO)C(=O)c2cc(NS(C)(=O)=O)ccc2O1`, the relative growth is inactive: 1. Then `C[C@@H]1CN([C@@H](C)CO)C(=O)c2cccc(NS(=O)(=O)c3cn(C)cn3)c2O[C@@H]1CN(C)Cc1ccncc1`, with inactive: 0.968; and `CN(C)C(=O)C[C@H]1C=C[C@@H](NC(=O)C2CCOCC2)[C@@H](CO)O1`, with inactive: 1.02; and `C[C@@H]1CCCCO[C@@H](CN(C)C(=O)Nc2ccc(C(F)(F)F)cc2)[C@@H](C)CN([C@H](C)CO)C(=O)c2cc(NS(=O)(=O)c3ccc(F)cc3)ccc2O1`, with inactive: 1.01. Then `C[C@H]1CCCCO[C@H](CN(C)C(=O)Nc2ccc(F)cc2)[C@@H](C)CN([C@@H](C)CO)C(=O)c2cc(NC(=O)c3ccncc3)ccc2O1`, with inactive: 1; and `C=CC[C@@H](CC(=O)NCCO)C(=O)N[C@@H](COC(=O)[C@@H](CC=C)CC(=O)OC(C)(C)C)Cc1c[nH]c2ccccc12`, with inactive: 1.01; and `C[C@@H]1CN([C@H](C)CO)C(=O)CCCn2nncc2CO[C@H]1CN(C)C(=O)Nc1ccc(C(F)(F)F)cc1`, with inactive: 0.947. With `CN(C)C(=O)c1cccc(-c2cccc(-c3nc(C(=O)NCc4ccccc4)cc4c3[C@@H](CCO)N([S@](=O)C(C)(C)C)C4)c2)c1` the figure was inactive: 0.974; with `COCC(=O)N(C)C[C@H]1Oc2cc(C#CCC3CCCC3)ccc2S(=O)(=O)N([C@@H](C)CO)C[C@@H]1C`, inactive: 1.01. Regarding `CN(C)CC(=O)N[C@@H]1CC[C@@H](CCNC(=O)C2CCC2)O[C@H]1CO`, the relative growth is inactive: 1.05. Then `CCCNC(=O)C[C@@H]1CC[C@H]2[C@@H](COc3ccc(NS(=O)(=O)c4ccccc4C)cc3C(=O)N2C)O1`, with inactive: 0.987; and `CC(C)c1c(C(=O)Nc2ccccc2)c(-c2ccccc2)c(-c2ccc(F)cc2)n1CC[C@@H](O)C[C@@H](O)CC(=O)O`, with inactive: 1.

Consider `C[C@H](CO)N1C[C@H](C)[C@H](CN(C)Cc2ccccc2)OCCCC[C@H](C)Oc2ccc(NC(=O)C3CCCCC3)cc2C1=O`, for which the relative growth is inactive: 1.01. For the molecule `COCC#Cc1ccc2c(c1)O[C@@H](CN(C)S(=O)(=O)c1ccc(F)cc1)[C@H](C)CN([C@H](C)CO)S2(=O)=O`, the relative growth was inactive: 1.01. With `C[C@@H]1CN([C@@H](C)CO)C(=O)c2cccc(NS(=O)(=O)c3ccc(Cl)cc3)c2O[C@@H]1CN(C)Cc1ccc(Oc2ccccc2)cc1` the figure was inactive: 1.03. On to `CCC(=O)NCc1nn(C)c2c1COCC2`, for which the relative growth is inactive: 1.02. For the molecule `C[C@@H]1CN([C@H](C)CO)C(=O)c2cc(NC(=O)Nc3cccc4ccccc34)ccc2O[C@H]1CN(C)C(=O)Nc1ccccc1`, the relative growth was inactive: 0.982. With `COc1ccc(S(=O)(=O)Nc2ccc3c(c2)C(=O)N([C@H](C)CO)C[C@@H](C)[C@@H](CN(C)C(=O)CCC(F)(F)F)OCCCC[C@@H](C)O3)cc1`, the relative growth is inactive: 1. For `C[C@H]1CN([C@@H](C)CO)C(=O)c2cc(C#CCc3ccccc3)cnc2O[C@H]1CN(C)CC1CCOCC1`, the relative growth was inactive: 1. Then `CNCc1cc(C)nn1C`, with inactive: 0.989; and `C#CCSC1=N[C@@]2(COCc3ccc(OC)cc3)Oc3ccccc3[C@H]([C@H]2CO[Si](C)(C)C(C)(C)C)N1C(=O)c1ccccc1`, with inactive: 0.999; and `NCCCNCCCCNCCCN`, with inactive: 1.11. With `COc1ccc(-c2oc3cc(OC)c(OC)c(OC)c3c(=O)c2OC)cc1` the figure was inactive: 1.12; with `COc1ccc([Si](C)(C)[C@H]2[C@H](CC(=O)N3Cc4ccccc4C[C@H]3CO)O[C@@]3(C(=O)N(Cc4cccc(I)c4)c4ccccc43)[C@@H]2C)cc1`, inactive: 1.03; with `COC(=O)C1C(O)CCC2CN3CCc4c([nH]c5ccccc45)C3CC21` (centres undefined), inactive: 1. On to `C[C@@H]1CCCCO[C@@H](CN(C)CC2CCCCC2)[C@H](C)CN([C@H](C)CO)C(=O)c2cc(NC(=O)NC3CCCCC3)ccc2O1`, for which the relative growth was inactive: 0.989. With `C[C@@H]1CN([C@@H](C)CO)C(=O)c2cc(NC(=O)Nc3ccc(F)cc3)ccc2O[C@@H]1CN(C)Cc1ccc(C(F)(F)F)cc1` the figure was inactive: 0.985; with `C[C@@H]1CN([C@@H](C)CO)C(=O)c2cc(NS(=O)(=O)c3ccc(Cl)cc3)ccc2O[C@@H]1CN(C)C(=O)Nc1cccc2ccccc12`, inactive: 1.03. With `C[C@@H]1CN([C@H](C)CO)C(=O)c2cccc(NC(=O)C3CC3)c2O[C@@H]1CN(C)S(=O)(=O)c1cn(C)cn1` the figure was inactive: 0.997; with `Nc1ccc2c(c1)nc(CO)n2CCO`, inactive: 0.981. With `Cc1ccc(S(=O)(=O)N(C)C[C@@H]2Oc3c(NS(=O)(=O)c4ccc(F)cc4)cccc3C(=O)N([C@H](C)CO)C[C@@H]2C)cc1` the figure was inactive: 1.01; with `OCc1cccnc1`, inactive: 0.957. Turning to `Cc1ccc(S(=O)(=O)N(C)C[C@H]2Oc3ncc(-c4ccncc4)cc3C(=O)N([C@H](C)CO)C[C@H]2C)cc1`, the relative growth is inactive: 1.02. Then `C[C@@H]1CCCCO[C@@H](CN(C)S(=O)(=O)c2ccccc2)[C@H](C)CN([C@H](C)CO)C(=O)c2cc(NS(=O)(=O)c3cn(C)cn3)ccc2O1`, with inactive: 1.02; and `O=C1N[C@H](Cc2c[nH]c3ccccc23)COC(=O)[C@H](Cc2ccc(F)cc2)CC=CC[C@@H]1CC(=O)N(CCO)Cc1ccccc1`, with inactive: 0.995. With `COc1ccc(NC(=O)N(C)C[C@H]2Oc3ccc(NC(=O)Nc4cccc5ccccc45)cc3C(=O)N([C@H](C)CO)C[C@@H]2C)cc1`, the relative growth was inactive: 0.983. With `C[C@H](CO)N1C[C@H](C)[C@H](CN(C)Cc2ccc(Cl)c(Cl)c2)Oc2c(NC(=O)CCCCCC(=O)Nc3ccccc3N)cccc2C1=O` the figure was inactive: 0.951; with `Cc1ccc(-c2ccc3c(c2)O[C@@H](CN(C)C(=O)CN(C)C)[C@@H](C)CN([C@H](C)CO)S3(=O)=O)cc1`, inactive: 1; with `Cc1noc(C)c1NC(=O)N(C)C[C@H]1Oc2ccc(NC(=O)Nc3ccc(C(F)(F)F)cc3)cc2C(=O)N([C@@H](C)CO)C[C@H]1C`, inactive: 0.936.

`CC(=O)NCC(=O)OCC(=O)c1ccccc1`: the relative growth was inactive: 0.982.
